# In PubChem BioAssay AID1460 (National Center for Advancing Translational Sciences (NCATS), 2008):
# Among all 270,000 compounds or so, about 5,800 (2.1%) were called active. The inconclusive results got no clear call from the source; some entries with a clear call stand among them for comparison. Calls come from the whole dose curve; as a rule, active = well fitted inhibition curve with a large enough effect; inconclusive = small, poorly fitted or top-dose-only effect; inactive = flat fitted curve, though single readings scatter. A potency beside an inconclusive call is a rough fit, not a confirmed value.
# Target: Microtubule-associated protein tau (Homo sapiens) (UniProt P10636)
# UniProt P10636, sequence (P10636 whole entry, looked up): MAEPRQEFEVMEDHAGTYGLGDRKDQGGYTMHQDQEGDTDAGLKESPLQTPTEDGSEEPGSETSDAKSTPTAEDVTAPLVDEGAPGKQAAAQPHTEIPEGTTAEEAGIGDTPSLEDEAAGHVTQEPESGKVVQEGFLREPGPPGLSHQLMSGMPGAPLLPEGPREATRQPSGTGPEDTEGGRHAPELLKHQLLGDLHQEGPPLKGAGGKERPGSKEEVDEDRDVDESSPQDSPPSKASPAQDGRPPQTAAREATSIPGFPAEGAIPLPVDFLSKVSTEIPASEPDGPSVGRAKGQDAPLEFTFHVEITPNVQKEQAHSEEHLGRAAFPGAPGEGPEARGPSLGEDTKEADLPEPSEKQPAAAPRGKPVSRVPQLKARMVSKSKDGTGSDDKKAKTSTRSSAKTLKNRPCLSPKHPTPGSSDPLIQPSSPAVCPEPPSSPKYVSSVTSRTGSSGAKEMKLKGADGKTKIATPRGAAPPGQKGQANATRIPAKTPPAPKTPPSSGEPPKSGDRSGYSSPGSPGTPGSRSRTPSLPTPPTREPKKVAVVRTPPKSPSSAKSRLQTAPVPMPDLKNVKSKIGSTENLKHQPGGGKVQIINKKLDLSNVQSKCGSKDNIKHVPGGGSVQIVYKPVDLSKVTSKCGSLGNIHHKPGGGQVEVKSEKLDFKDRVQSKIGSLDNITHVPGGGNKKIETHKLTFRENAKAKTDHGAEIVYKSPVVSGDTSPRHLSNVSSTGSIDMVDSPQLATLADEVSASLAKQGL
# Experiment: qHTS for Inhibitors of Tau Fibril Formation, Thioflavin T Binding; note: nearly all actives have a fitted effect of over 55% in size
# Conditions: recombinant tau K18 P301L (four-repeat tau fragment), heparin-induced fibrillization, ThT fluorescence; series mostly up to 57.4 µM; activity, negative = inhibition: at the top concentration
# Summary of the method: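 Aggregation was driven by heparin (20 uM final) acting on recombinant tau […] bearing P301L in 100 mM sodium acetate pH 7; fibrils were detected with Thioflavin T.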
# % is set by controls: 0 for no effect and ±100 for the full control effect; potency is the fitted concentration of half-maximal effect; tags give direction and shape of the fitted curve.
Compound,Potency,"activity, negative = inhibition"
CC1=C(C#N)c2nc(N)c(C#N)c(C)c2/C1=C\c1ccc(OCC(=O)O)c(Cl)c1,active: 15.8 µM,
COCCN1CSC(=S)N(Cc2ccco2)C1,"inconclusive: 31.6 µM [inhibitor, single point]",
COc1ccccc1N1C(=O)C2C(C(=O)c3ccccc3)=NN(c3ccc(C)cc3)C2C1=O (stereo not given),"inconclusive: 2 µM [inhibitor, full curve]",
CCOC(=O)CSc1nc2c(sc(=S)n2Cc2ccco2)c(=O)n1-c1ccccc1,,inactive: -2.93%
Cc1ccc(C)c2c(SC(C)C(=O)NCc3ccco3)nc(-c3ccccc3)nc12 (stereo not given),,inactive: 6.28%
COC(=O)c1ccc(NC(=O)CSc2nnc(-c3ccncc3)n2C)cc1,"inconclusive: 3.55 µM [inhibitor, full curve]",
COc1ccccc1C(=O)N(Cc1ccco1)Cc1ccccc1F,"inconclusive: 44.7 µM [inhibitor, single point]",
CC(C)(C)C(C(Oc1ccc(Cl)cc1)n1cncn1)n1nnnc1C(c1cccc(Cl)c1)N1CCCCC1 (stereo not given),,inactive: -15.8%
C=CCNC(=O)CN(c1cc(Cl)ccc1OC)S(=O)(=O)c1ccc(C)c([N+](=O)[O-])c1,,inactive: -5.93%
CCCCCCC(=O)Cc1cc(OC)c(OC)cc1C=C(C(=O)OCC)C(=O)OCC,"inconclusive: 28.2 µM [inhibitor, partial curve]",
COc1ccccc1N1C(=O)[C@@H]2[C@H](C1=O)[C@H](C(=O)c1ccc(OC(C)=O)cc1)N1N=CC=C[C@@H]21,"inconclusive: 35.5 µM [inhibitor, single point]",
CCOC(=O)N1CCc2c(sc(NC(=O)c3ccc(Cl)s3)c2C(N)=O)C1,"inconclusive: 15.8 µM [inhibitor, partial curve]",
Cc1cc(NC(=O)c2ccco2)cc(-c2nc3cc(Cl)ccc3o2)c1O,"inconclusive: 0.355 µM [inhibitor, full curve, poor fit]",
COc1ccc(CC(=O)Nc2ccc(C(=O)Nc3ccccc3C(=O)O)cc2)cc1OC,,inactive: -1.38%
O=C(/C=C/c1ccco1)NC1=NCCS1,"inconclusive: 39.8 µM [inhibitor, single point]",
CCc1ccc(C(=O)c2cn(CC(=O)Nc3cccc(C)c3C)c3nc(C)ccc3c2=O)cc1,"inconclusive: 5.62 µM [inhibitor, partial curve]",
c1ccc(C2[C@H]3CN(Cc4cccnc4)[C@H](c4ccccc4)C34CC2(c2ccccc2)C4)cc1 (stereo not given in full),inactive,
COc1ccccc1CNC(=O)C1CCC1,,inactive: -2.8%
Cc1ccc(-n2c(=O)[nH]c3sc4c(c3c2=O)CCCC4)cc1,"inconclusive: 35.5 µM [inhibitor, partial curve, poor fit]",
CC(=O)Nc1ccccc1-c1nc2ccccc2n(C(C)C(=O)Nc2cccc(C)c2C)c1=O (stereo not given),,inactive: 5.88%
Oc1ccc(CN2CCN(c3ccccc3)CC2)c2cccnc12,"inconclusive: 6.31 µM [inhibitor, partial curve]",
C[C@]12C[C@@](C)(C=C1/C=C/c1ccccc1)C(=O)C[C@H]2c1ccccc1,,inactive: 0.559%
COc1c(Cl)ccc(Cl)c1C(=O)O,,inactive: -2.37%
CCOc1ccc(NC(=O)CC2C(=O)N(c3cccc(C)c3)C(=O)N2CCC2=CCCCC2)cc1 (stereo not given),,inactive: -12.6%

Compound,Potency,"activity, negative = inhibition"
CCOc1ccc(NC(=O)CCc2c(C)nc3c(c(C)nn3-c3ccccc3)c2C)cc1,"inconclusive: 2.82 µM [inhibitor, full curve, poor fit]",
CCCCCCC(=O)Cc1cc(OC)c(OC)cc1/C=C(/C(C)=O)C(=O)OC,,inactive: -7.38% [at 11.5 µM]
CC1=C([N+](=O)[O-])C(c2cccc(Br)c2)C2=C(N1)c1ccccc1C2=O (stereo not given),active: 15.8 µM,
CCN(CCn1cccn1)C(=O)CC1C(=O)NCCN1Cc1ccc(F)c(F)c1 (stereo not given),,inactive: -13%
Cc1ccc2ccc3cc(C(=O)Nc4ccc(C)c(F)c4)nc3c2[nH]1,"inconclusive: 1 µM [inhibitor, partial curve]",
CC(=O)N1CCCC1c1nc2ccccc2n1Cc1cc(C)ccc1C (stereo not given),,inactive: -1.04%
COC(=O)C1=C(C)N(Cc2ccc(C)cc2)C(=O)/C1=C\c1cc(OC)c(OC)c(OC)c1,"inconclusive: 20 µM [inhibitor, partial curve]",
COc1ccc(CNC(=O)CCc2c(C)nn(-c3ccc(N4CCOCC4)nn3)c2C)cc1,,inactive: -12.9%
CN(C)c1ccc(-c2noc(-c3ccccc3O)n2)cc1,"inconclusive: 2.24 µM [inhibitor, full curve]",
O=C(O)c1ccc(N/N=C/c2ccc3nccnc3c2)cc1,active: 3.55 µM,
CC1CCN(c2ccc(C(=O)NCc3ccco3)cc2[N+](=O)[O-])CC1,"inconclusive: 12.6 µM [inhibitor, partial curve]",
C=CCn1c(SCC(C)=O)nnc1-c1cc(-c2ccccc2)sc1N,"inconclusive: 14.1 µM [inhibitor, partial curve]",
COc1ccc(Br)cc1C1CC(=O)N2CN(Cc3ccccc3)CSC2=C1C#N (stereo not given),active: 28.2 µM,
O=C(c1ccccc1)c1c[nH]c(C(=O)NNc2ccccc2)c1,"inconclusive: 14.1 µM [inhibitor, partial curve]",
CCOC(=O)c1sc(Nc2ccc(F)cc2)nc1C,,inactive: -11.8%
Cc1nc2ccccn2c1C(=O)/C=C/c1cccc([N+](=O)[O-])c1,"inconclusive: 3.55 µM [inhibitor, full curve]",
COc1cc2c(cc1OC)CN(c1ccc([N+](=O)[O-])cc1C#N)CC2,"inconclusive: 12.6 µM [inhibitor, partial curve]",
COC(=O)C(NC(=O)c1ccccc1)=C(C)C,,inactive: -6.96%
CC(=O)Nc1nc(-c2ccccc2)ns1,,inactive: -10.6%
Cc1ccc(CCNS(=O)(=O)c2ccc3c(c2)CCN3C(=O)CCC(=O)O)cc1,,inactive: -2.11%
Cc1cc(C)c2c3c(sc2n1)C(c1ccccc1)C(C#N)=C(N)O3 (stereo not given),"inconclusive: 39.8 µM [inhibitor, single point]",
COc1ccccc1N1CCN(c2nc3ccccc3nc2C(C#N)C(=O)OC(C)C)CC1 (stereo not given),"inconclusive: 12.6 µM [inhibitor, partial curve]",
O=C(Cc1ccc(F)cc1)Nc1cccc(-c2nc3cccnc3s2)c1,"inconclusive: 2.51 µM [inhibitor, full curve, poor fit]",
Cc1ccc(C(=O)COC(=O)c2cnccn2)cc1[N+](=O)[O-],"inconclusive: 20 µM [inhibitor, single point]",

Compound,Potency,"activity, negative = inhibition"
O=C(NCC(c1cccnc1)N1CCc2ccccc2C1)C(=O)Nc1cccc(Cl)c1 (stereo not given),"inconclusive: 1 µM [inhibitor, partial curve]",
CCOC(=O)OCC1OC(c2ccccc2)C=CC1Oc1cccc(N(C)C)c1 (stereo not given),"inconclusive: 2.82 µM [inhibitor, partial curve]",
N#C/C(=C(/O)COc1ccc(Br)cc1)c1nnc2n1CCCCC2,,inactive: -4.95%
Cn1c(=O)n(C)c2cc(N3CCOCC3)c(NS(=O)(=O)c3ccc(Br)cc3)cc21,"inconclusive: 31.6 µM [inhibitor, partial curve]",
CCOc1cc(CNCCSc2nnnn2C)cc(Cl)c1OCc1ccc(Cl)cc1,"inconclusive: 39.8 µM [inhibitor, single point]",
Cc1cc(C(=O)Nc2nc3ccc(Cl)cc3s2)nn1C,,inactive: -7.47%
Cc1cccc(N2CCN(C(=O)CCCn3ncn4c(cc5occc54)c3=O)CC2)c1C,"inconclusive: 0.891 µM [inhibitor, partial curve, poor fit]",
Cc1ccccc1C([O-])=Nc1ccc[n+](-c2nc3ccccc3nc2NS(=O)(=O)c2ccccc2)c1,"inconclusive: 2 µM [inhibitor, full curve]",
COc1ccc(CCC(=O)NNC(=S)Nc2cccc(C(C)=O)c2)cc1,,inactive: -6.06%
O=C(N/N=C/C=C/c1ccco1)c1cccc([N+](=O)[O-])c1,"inconclusive: 12.6 µM [inhibitor, partial curve]",
CSc1cccc(NC(=O)CC(c2ccc(F)cc2)N2Cc3ccccc3C2=O)c1 (stereo not given),"inconclusive: 11.2 µM [activator, partial curve]",
CCOc1ccc(/C=C2\CCc3ccccc3C2=O)cc1,"inconclusive: 3.55 µM [inhibitor, full curve]",
COc1ccc2nc(NNC(=O)C3COc4ccccc4O3)sc2c1 (stereo not given),"inconclusive: 25.1 µM [inhibitor, partial curve]",
COC(=O)c1c(NC(=O)COc2ccc(Cl)cc2C)sc2c1CCCCC2,,inactive: -16.7%
CN(C)S(=O)(=O)c1cccc(NC(=S)Nc2cccc3cnccc23)c1,"inconclusive: 14.1 µM [inhibitor, partial curve]",
C=Cc1ccc([C@H]2N[C@@H](C(=O)O)CC[C@@H]2C)cc1,,inactive: -2.09% [at 11.5 µM]
COc1ccc(C(=O)c2c(N)c(-c3nc(-c4ccccc4)cs3)c3ccccn23)cc1,"inconclusive: 12.6 µM [inhibitor, partial curve]",
CC(/C=C/c1ccccc1)=N/NC(=O)c1cnccn1,"inconclusive: 7.94 µM [inhibitor, partial curve]",
COC(=O)CSc1nc(C)cc(C)n1,,inactive: -5.24%
COc1ccccc1NS(=O)(=O)c1cccc(C(=O)N/N=C/c2ccc(C)o2)c1,"inconclusive: 14.1 µM [inhibitor, partial curve]",
CN(C(=O)c1ccc(S(=O)(=O)c2cccc(Cl)c2)c([N+](=O)[O-])c1)C1CCCCC1,"inconclusive: 15.8 µM [inhibitor, partial curve]",
CCOC(=O)c1cnc2c(ccc3ccccc32)c1Nc1ccc(OC)cc1OC,"inconclusive: 0.631 µM [inhibitor, full curve]",
